# The campaign covered roughly 310,000 compounds. About 2,200 (0.71%) showed an effect of 50% or more. Effects have a minus sign here. The list shows a part of the results.
# Target: human ether-à-go-go-related gene (hERG) potassium channel (human, UniProt Q12809)
# Assay: primary screen, population patch clamp on CHO cells stably expressing hERG
# Chain of human ether-à-go-go-related gene (hERG) potassium channel (Q12809 whole entry, looked up): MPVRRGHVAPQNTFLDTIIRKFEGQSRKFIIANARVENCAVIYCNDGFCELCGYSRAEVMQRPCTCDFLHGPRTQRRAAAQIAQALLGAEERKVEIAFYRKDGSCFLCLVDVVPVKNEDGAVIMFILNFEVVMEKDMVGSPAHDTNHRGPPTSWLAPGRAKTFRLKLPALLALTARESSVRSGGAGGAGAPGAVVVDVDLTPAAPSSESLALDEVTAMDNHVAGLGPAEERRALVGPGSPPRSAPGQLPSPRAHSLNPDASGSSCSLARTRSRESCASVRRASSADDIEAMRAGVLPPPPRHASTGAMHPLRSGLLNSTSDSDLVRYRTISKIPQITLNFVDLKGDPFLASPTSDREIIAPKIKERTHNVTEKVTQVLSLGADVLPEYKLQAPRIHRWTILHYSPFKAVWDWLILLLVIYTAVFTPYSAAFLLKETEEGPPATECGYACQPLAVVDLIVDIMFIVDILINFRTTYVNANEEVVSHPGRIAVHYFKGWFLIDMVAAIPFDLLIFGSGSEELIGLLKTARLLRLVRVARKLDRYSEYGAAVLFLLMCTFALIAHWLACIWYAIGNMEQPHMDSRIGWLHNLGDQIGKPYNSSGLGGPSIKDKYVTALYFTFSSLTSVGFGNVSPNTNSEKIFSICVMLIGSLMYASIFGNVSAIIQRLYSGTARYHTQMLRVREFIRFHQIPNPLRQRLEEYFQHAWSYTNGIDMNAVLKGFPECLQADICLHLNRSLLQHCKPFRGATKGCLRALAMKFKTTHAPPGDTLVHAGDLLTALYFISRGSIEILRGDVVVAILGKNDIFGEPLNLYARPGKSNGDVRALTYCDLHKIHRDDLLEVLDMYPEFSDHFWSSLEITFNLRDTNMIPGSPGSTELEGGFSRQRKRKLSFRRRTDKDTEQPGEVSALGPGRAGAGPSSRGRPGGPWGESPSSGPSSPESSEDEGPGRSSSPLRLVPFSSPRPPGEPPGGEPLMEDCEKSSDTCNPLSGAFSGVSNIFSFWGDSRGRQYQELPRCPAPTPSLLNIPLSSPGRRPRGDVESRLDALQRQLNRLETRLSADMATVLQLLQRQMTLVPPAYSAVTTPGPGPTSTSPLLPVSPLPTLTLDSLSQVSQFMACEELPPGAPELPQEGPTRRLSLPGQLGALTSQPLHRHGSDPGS
row,SMILES,"hERG current change (%, negative = inhibition) at 1uM [%]"
1,Cc1ccccc1OCC1Cc2c(nc(N)c(C#N)c2N)O1 (centres unmarked),2.98
2,CCN(CC)c1cc(C)c(C#N)c2nc3ccccc3n12,9.95
3,Cc1ccc(OCCNCC(O)COc2ccccc2)cc1.O=C(O)C(=O)O (centres unmarked),5.43
4,COc1cc(CCC(=O)Nc2cccc(C(F)(F)F)c2)cc(OC)c1OC,4.62
5,CNC(=O)Nc1cc(NC(=O)NC)cc(C(F)(F)F)c1,7.76
6,Cn1cc(Br)c(C(=O)NNC(=O)c2ccc(Cl)cc2)n1,2.2
7,COc1ccc(Cl)cc1NC(=O)C1Cc2ccccc2CN1S(C)(=O)=O (centres unmarked),16.6
8,CC1CC(C)CN(CCCNC(=O)Cn2ncc3c([nH]c4ccccc43)c2=O)C1 (centres unmarked),-1.27
9,COc1cccc(N2CCN(C(=O)c3oc4ccccc4c3NC(=O)Cc3ccc(OC)c(OC)c3)CC2)c1,13.3
10,CCCOC(=O)c1ccc(Oc2cn[nH]c2-c2ccc(OCC)cc2O)cc1,11.1
11,Cc1nc(CNC(=O)CC2C(=O)NCCN2Cc2ccoc2)nc2c1CCCC2 (centres unmarked),11.8
12,O=C(Cc1c[nH]c2ccccc12)OCC(=O)c1ccccc1,16.5
13,O=C(COC(=O)Cn1cnc2ccccc21)Nc1cc(S(=O)(=O)N2CCOCC2)ccc1Cl,11.1
14,Cc1ccc(CSc2nnc(-c3ccc(S(=O)(=O)N4CCCC4)cc3)o2)cc1,6.97
15,O=C(COC(=O)C1(c2ccc(F)cc2)CCCC1)NCc1ccc2c(c1)OCO2,-3.4
16,Cc1nn(-c2ccccc2)cc1/C=N/NC(=O)c1cccs1,9.49
17,CNC(=O)C1CCN(S(=O)(=O)c2c(C)noc2/C=C/c2ccc(C)cc2)CC1,10.2
18,Cl.O=C(Nc1ncccc1Cl)c1ccc2c(c1)OCCO2,10
19,CCOC(=O)C1=C(CN2CCc3ccccc32)NC(=O)NC1c1cccc([N+](=O)[O-])c1 (centres unmarked),2.39
20,Cc1ccc(-c2ccc(/C=N/NC(N)=S)o2)cc1,-23.3
21,Cc1cccc(C)c1NC(=O)C(C)c1ccc(-c2ccccc2)c(F)c1 (centres unmarked),19.2
22,Cc1[nH]n(C(N)=S)c(=O)c1N=Nc1cc(-c2ccc(Br)cc2)[nH]n1,16

row,SMILES,"hERG current change (%, negative = inhibition) at 1uM [%]"
1,CCOC(=O)C1(Cc2cccc(F)c2)CCN(C(=O)Cc2cccnc2)CC1,6.69
2,COc1ccc(CNC(=O)C2CCCN(S(=O)(=O)c3ccccc3)C2)cc1 (centres unmarked),13.1
3,COc1ccc(C(CNC(=O)COc2ccc([N+](=O)[O-])cc2)N2CCCCC2)cc1 (centres unmarked),-52.1
4,CCCCc1nn(-c2cc(Cl)ccc2OC)c2c1C(=O)CC(C)(C)C2,-13
5,CNc1nccc(-c2ccc(F)cc2)c1C#N,7.91
6,O=C(Nc1ccc(Cl)cc1)OC(CN1CCCCC1)C(F)(F)F (centres unmarked),6.47
7,Cc1ccc(S(=O)(=O)N(C)c2ccc(C(=O)Nc3c(C)n(C)n(-c4ccccc4)c3=O)cc2)cc1,4.15
8,COc1cc(NC(=O)c2cccs2)c(OC)cc1NC(=O)CCC(=O)Nc1ccc(C)cc1,-1.36
9,O=C1NC(=Nc2cccc(O)c2)S/C1=C\c1cccnc1,10.7
10,Cc1ccc(C)c(N)c1,7.96
11,O=C(Nc1cc(C(F)(F)F)ccc1N1CCOCC1)c1cn2ccccc2n1,2.85
12,CCOc1ccc2nc(SC(CC)C(=O)Nc3cc(C)on3)sc2c1 (centres unmarked),19.8
13,O=C(CNC(=O)c1cccs1)c1ccc([N+](=O)[O-])cc1,4.29
14,CC/C(=N\NC(=O)c1ccc(Br)cc1)c1ccccc1,12.6
15,CCOC(=O)CSc1ccc2nnc(-c3ccccc3)n2n1,-3.16
16,COc1ccc(N2CCN(C(=O)COC(=O)c3cccc(S(=O)(=O)Nc4ccccc4OC)c3)CC2)cc1,-17.8
17,Cc1cc(CNC(=O)COc2ccc(F)cc2)c2ccccc2n1,10.6
18,CC(NC(=O)COC(=O)/C=C/c1ccco1)c1ccccc1 (centres unmarked),8.61
19,O=C(NC1CCCCCCC1)c1ccc(S(=O)(=O)N2CCCC2)cc1,10.8
20,Cc1cc(N(C)C)c(C#N)c(N2CCCCC2)n1,6.47
21,Cc1cc(/C=C2\NC(=S)N(C)C2=O)ccc1N1CCCC1,15
22,COC(=O)CSc1nnc(COc2cccc3ccccc23)o1,14.7

# Reference: paper PMC4336329 (PLoS ONE, 2015)
